# Assay results as given in PubChem BioAssay AID504832 (National Center for Advancing Translational Sciences (NCATS), 2011).
# The whole screen tested about 310,000 compounds, of which about 18,000 (5.8%) were called active. The shares of active, inactive and inconclusive entries below differ from those in the screen. Calls come from the whole dose curve; as a rule, active = well fitted inhibition curve with a large enough effect; inconclusive = small, poorly fitted or top-dose-only effect, or another doubt; inactive = no such curve, though single readings can be large or run the other way. No potency is given beside an inconclusive call; the fits are too rough.
# Assay: Primary qHTS for delayed death inhibitors of the malarial parasite plastid, 48 hour incubation
# Settings: P. falciparum luciferase growth in erythrocytes; series mostly up to 28.7 µM; activity change, negative = inhibition: at the top concentration
# In short: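 Compounds are pin-transferred into medium, infected erythrocytes (2% hematocrit, 0.1% parasitemia final) are added, and plates sit one parasite generation at 37 C in 5% CO2. Detection reagent is then added and luminescence measured.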
# % is set by controls: 0 for no effect and ±100 for the full control effect; potency is the fitted concentration of half-maximal effect; tags give direction and shape of the fitted curve.
SMILES,Potency,"activity change, negative = inhibition"
COc1ccc(/C=N/NC(=O)c2ccco2)cc1Cn1nc(C)c([N+](=O)[O-])c1C,"inconclusive [inhibitor, single point]",–
CCN(CC)S(=O)(=O)c1ccc(C)c(NC(=O)CN2CCN(Cc3ccccc3)CC2)c1,"inconclusive [inhibitor, single point]",–
CC(=O)c1c(C)[nH]c(C(=O)OCC(=O)Nc2ccc(Cl)cc2[N+](=O)[O-])c1C,–,inactive: 0.401%
COC(=O)c1sc(NC(=O)c2cccc([N+](=O)[O-])c2)c(C(N)=O)c1C,–,inactive: 22.6%
O=C(COc1ccccc1)Nc1cc2c3c(c1)CC(=O)N3CCC2,–,inactive: 17.9%
O=C(Nc1ccc(Cc2ccc(NC(=O)C3CC3)cc2)cc1)C1CC1,–,inactive: -7.49%
COc1ccc(Oc2coc3c(CN(C)C)c(O)ccc3c2=O)cc1,–,inactive: 12.1%
Cc1ncc(C23CC4CC(CC(C4)C2)C3)[nH]1,–,inactive: -16.5%
COc1ccc(C2CC2/C(C)=N/OC(=O)c2ccc(F)cc2)cc1 (stereo unspecified),–,inactive: 41.7%
CC(=O)C1=C(C)NC(=O)NC1c1cccc([N+](=O)[O-])c1O (stereo unspecified),"inconclusive [inhibitor, full curve, poor fit]",–
CN(C)c1ccc(S(=O)(=O)N(C)C)cc1NC(=O)Cc1cccc2ccccc12,"inconclusive [inhibitor, partial curve]",–
Cc1ccc(C)c(OCC(O)CN2C(C)CCCC2C)c1 (stereo unspecified),"inconclusive [inhibitor, single point]",–
O=C1c2ccccc2C(=O)N1CCCCN(C(=O)c1cccc([N+](=O)[O-])c1)c1ccc(Cl)cc1,"inconclusive [inhibitor, single point]",–
COc1ccc(F)cc1C(=O)C1CCCN(C(=O)c2cccc(N(C)C)c2)C1 (stereo unspecified),active: 5.86 µM,–
Cn1nc(C(=O)OCC(=O)Nc2cccc(S(=O)(=O)N3CCCC3)c2)c2ccccc2c1=O,active: 11.7 µM,–
COc1ccc(C(=O)c2c(N)sc3c2CCN(C(=O)OC(C)(C)C)C3)cc1,active: 13.1 µM,–
CCn1c2ccccc2c2cc(CNCCCN3CCOCC3)ccc21,"inconclusive [inhibitor, partial curve, poor fit]",–
COC(=O)CCC(NC(=O)c1cc(-c2ccc3c(c2)OCCO3)oc1C)C(=O)OC (stereo unspecified),"inconclusive [inhibitor, partial curve, poor fit]",–
COc1ccc(-n2nc(C(=O)N3CCN(c4ccc(F)cc4)CC3)c3ccccc3c2=O)c(OC)c1,"inconclusive [inhibitor, single point]",–
Cc1cccn2c(=O)c(C=O)c(N3CCN(c4ccccc4)CC3)nc12,"inconclusive [inhibitor, partial curve]",–
COc1ccccc1C(=O)Nc1ccc2c(c1)nc(CN1CCN(C(C)=O)CC1)n2C,"inconclusive [inhibitor, single point]",–
N=C(N)N=Nc1c(O)[nH]c2ccc(Br)cc12,"inconclusive [inhibitor, single point]",–
CCc1ccc(-c2cc(C(=O)NCc3ccccn3)c3ccccc3n2)cc1,–,inactive: 33.7%

SMILES,Potency,"activity change, negative = inhibition"
CCc1nnc(NC(=O)CSc2nc3cc(OC)ccc3cc2C)s1,–,inactive: 11%
CCOC(=O)Cc1csc(N/N=C/c2ccccc2)n1,–,inactive: 180%
CCCC(=O)Nc1ccc(NC(=O)C23CC4CC(CC(C4)C2)C3)cn1,"inconclusive [inhibitor, single point]",–
CCc1cc2c(COC(=O)c3c(C)noc3C)cc(=O)oc2cc1O,"inconclusive [inhibitor, single point]",–
O=[N+]([O-])c1ccc(CSc2nnc(SCc3ccc(Cl)cc3)s2)cc1,–,inactive: 17.2%
Cc1[nH]nc2c1C(c1ccc(-c3ccccc3C#N)o1)C(C#N)=C(N)O2 (stereo unspecified),–,inactive: 12.8%
CCOC(=O)C1=C(O)/C(=C\c2ccc(CNC(=O)C(=O)Nc3ccccc3)o2)N=C1C,–,inactive: -2.25%
CN(C)S(=O)(=O)c1ccc(Cl)c(NC(=O)CN2CCN(Cc3ccc4c(c3)OCO4)CC2)c1,"inconclusive [inhibitor, single point]",–
Cc1cccc(-n2c(=S)[nH]c3c(oc4ccccc43)c2=O)c1,–,inactive: 11.9%
Cc1ccc(CN(C)S(=O)(=O)c2c(C)noc2/C=C/N(C)C)cc1,–,inactive: 17.6%
CCOc1ccc(CCNC(=O)c2nnn(CC(=O)Nc3ccc(OC)c(OC)c3)c2N)cc1OCC,"inconclusive [inhibitor, single point]",–
CC(NC(=O)c1cc(F)c(F)cc1Cl)C1CC2CCC1C2 (stereo unspecified),–,inactive: 2.66%
COc1ccc(S(=O)(=O)N2CCCCCC2)cc1NC(=O)Cc1n[nH]c(=O)c2ccccc12,"inconclusive [inhibitor, partial curve]",–
O=C(NC12CC3CC(CC(C3)C1)C2)N(Cc1ccccc1)Cc1ccncc1,"inconclusive [inhibitor, single point]",–
CCOC(=O)c1cc2c(ccn2C)n1CC(=O)N1C(C)CCCC1C (stereo unspecified),"inconclusive [inhibitor, single point]",–
COc1ccc(C)cc1NC(=O)CNC(C)C(=O)Nc1cc(Cl)ccc1Cl (stereo unspecified),"inconclusive [inhibitor, partial curve]",–
CN(C(=O)COC(=O)C1CCN(S(=O)(=O)c2c(Cl)cccc2Cl)CC1)C1CCS(=O)(=O)C1 (stereo unspecified),"inconclusive [inhibitor, full curve, poor fit]",–
COc1ccccc1Nc1nc(NCCO)c2ccccc2n1,"inconclusive [inhibitor, partial curve]",–
CCN(CC)CC#CCC1(O)c2ccccc2-c2ccccc21,"inconclusive [inhibitor, partial curve, poor fit]",–
Nc1c2c(nc3sc4c(c13)CCCC4)CCCCCC2,–,inactive: 9.68%
CC(C)Oc1ccccc1C1Nc2ccccc2C(=O)N1c1ccc2c(c1)OCCO2 (stereo unspecified),–,inactive: 5.5%
COc1ccc(OC)c(-c2csc(NC(=O)C3CSC4(C)CCC(=O)N34)n2)c1 (stereo unspecified),"inconclusive [inhibitor, partial curve]",–
COc1ccc(CCNc2oc(-c3cccc4ccccc34)nc2P(=O)(OC)OC)cc1OC,"inconclusive [inhibitor, partial curve]",–
